The campaign covered roughly 46,000 compounds. About 60 (0.1%) were called active. Not shown: some 3% with an inconclusive outcome. Calls come from the whole dose curve; as a rule, active = well fitted inhibition curve with a large enough effect; inconclusive = small, poorly fitted or top-dose-only effect; inactive = no such curve, though single readings can be large or run the other way. The list shows a part of the results.

A short description of this experiment: Primary qHTS assay for Inhibitors of ovarian cancer metastasis using an organotypic tumor microenvironment (TME) model.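 For activity change, negative = inhibition: plate controls were DMSO wells for no effect and tomatine positive control wells for full effect.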 Note: nearly all actives have a fitted effect of over 65% in size. Particulars: SKOV3ip1-GFP adhesion/invasion on 3D omental model, fluorescence; series mostly up to 45.8 µM; activity change, negative = inhibition: at the top concentration. In a few lines: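 Adhesion/invasion was scored as fixed GFP-labeled SKOV3ip1 cell counts (488/509 nm), normalized to DMSO and tomatine controls. Cancer cells in serum-free medium, with four compound doses (0.36-46 umol/L), sat 2 hr at RT then 16 hr at 37 C on a 48 hr fibroblast/mesothelial/ECM culture.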
On the technique in general: In qHTS, concentration-response curves come from the screen itself.
As for `COc1ccc(CNC(=O)CN2C(=O)COc3ccc(S(=O)(=O)NC4CCCC4)cc32)cc1`, the “activity change, negative = inhibition” value was inactive: -3.7%.

As for `CCOc1ccc(CCNC(=O)c2csc3c2CCCCC3)cc1`, the molecule was called inactive.

Turning to `CCn1c(=O)c2cc(C(=O)N(CC(C)C)CC(C)C)sc2c2ccccc21`, the “activity change, negative = inhibition” value is inactive: 6.19%.

On to `CCOC(=O)c1cccc(NC(=O)Cn2c(=O)nc(-c3ccccc3F)c3cc(Cl)ccc32)c1`, for which the “activity change, negative = inhibition” value is inactive: -9.46%.

Regarding `COc1cccc(CNC(=O)CCCN2C(=O)CCn3nc(-c4cccn4C)cc32)c1`, the “activity change, negative = inhibition” value is inactive: 2.63%.

As to `Cc1ccc2nc(CSc3nnc(NC(=O)c4cccc(Br)c4)s3)cc(=O)n2c1`, the “activity change, negative = inhibition” value is inactive: 8.58%.

On to `CCOC(=O)c1cc(-c2ccccc2)n(CCC(=O)NC2CCCCC2)c1C`, for which the molecule was classed as inactive.

As to `CCOC(=O)c1ccc(NC(=O)CN2c3ccccc3S(=O)(=O)c3ccccc32)cc1`, the result was inactive.

Take `CCN(C(=O)CSc1nc2ccccc2n1CC(=O)NCc1ccc(OC)cc1)c1ccccc1`: the “activity change, negative = inhibition” value is inactive: 11.1%.

As for `Cc1ccc(CNc2ncnc3c2nc2n3CCCC2)cc1`, the “activity change, negative = inhibition” value is inactive: 24.9%.

`COc1ccc(NC(=O)CC2C(=O)N(c3ccc(F)cc3)C(=O)N2Cc2ccc3c(c2)OCO3)cc1` (configuration not stated): the “activity change, negative = inhibition” value is inactive: 7.11%.

For the molecule `COc1ccc(-c2c(C)nn3c(N4CCN(c5ccccc5)CC4)cc(C)nc23)cc1OC`, the “activity change, negative = inhibition” value was inactive: -0.308%.

For the molecule `COc1ccc(/C=C(/C#N)c2nc(-c3ccc(-c4ccccc4)cc3)cs2)cc1OC`, the “activity change, negative = inhibition” value was inactive: 1.81%.

With `CCCn1c(=N)c(C(=O)NC2CCCC2)cc2c(=O)n3cccc(C)c3nc21`, the “activity change, negative = inhibition” value was inactive: -2.83%.

For the molecule `COc1cc(NC(=O)CCn2cnc3ccccc3c2=O)cc(OC)c1`, the “activity change, negative = inhibition” value is inactive: -2.27%.

With `Cc1noc(C)c1S(=O)(=O)Nc1ccc(C(=O)Nc2ccc(Br)cc2)cc1`, the outcome was inactive.

For `CCOC(=O)c1ccccc1NC(=O)n1ncc2cc(Cl)ccc21`, the “activity change, negative = inhibition” value was inactive: 14%.

Take `CCc1cccc(C)c1NC(=O)c1cc(S(=O)(=O)N2CCOCC2)cn1C`: the “activity change, negative = inhibition” value is inactive: 6.77%.

For the molecule `CCCCSCCCNC(=O)c1cn(CC)c2ccc(S(=O)(=O)N3CCCCCC3)cc2c1=O`, the result was inactive.

For `COc1ccc(OCCn2c(C)nc3cc(C)c(C)cc32)cc1`, the “activity change, negative = inhibition” value was inactive: -10.3%.

Take `CCOc1cccc(C(=O)Nc2ccc3oc(-c4cccnc4)nc3c2)c1`: the “activity change, negative = inhibition” value was inactive: 15.4%.

With `CN1C(=O)c2ccccc2Sc2ccc(NC(=O)N3CCN(c4ccccc4F)CC3)cc21`, the “activity change, negative = inhibition” value was inactive: 11.2%.

`CCCOc1ccc(C(=O)Nc2cc(-c3nc4cc(C)cc(C)c4o3)ccc2C)cc1`: the “activity change, negative = inhibition” value was inactive: -2.7%.

As for `Cc1ccc(-c2noc(-c3ccc(N4CCCCC4)c([N+](=O)[O-])c3)n2)cc1`, the “activity change, negative = inhibition” value is inactive: 0.523%.

On to `CC(C)NC(=O)C1CCN(C(=O)N2CCOc3ccc(Cl)cc32)CC1`, for which the “activity change, negative = inhibition” value was inactive: 0.763%.

Turning to `Clc1ccc(CCNC(c2nnc(-c3ccccc3)o2)c2ccccc2Cl)cc1` (configuration not stated), the “activity change, negative = inhibition” value is inactive: -9.76%.

For `CCn1c(SCc2ccccc2Cl)nc(=O)c2c(C(=O)OC)cc(C3CC3)nc21`, the result was inactive.

The values above are taken from PubChem BioAssay AID1963576 (National Center for Advancing Translational Sciences (NCATS), 2024).
